Experimental data reported in PubChem BioAssay AID1671188 (National Center for Advancing Translational Sciences (NCATS), 2021).
About 250 (0.25%) of roughly 100,000 compounds were called active. Inconclusive results, whose numbers are uncertain, are shown with a selection of clear calls. The call rests on the fitted dose curve; in most records, active means well fitted inhibition curve with a large enough effect; inconclusive means small, poorly fitted or top-dose-only effect; inactive means flat fitted curve, though single readings scatter. Potencies of inconclusive entries are left out as doubtful fits.
Further: nearly all actives have a fitted effect of over 60% in size.
On the % scale 0 is the no-effect control and ±100 the full control effect; potency means the concentration at half of the fitted maximal effect; tags describe the fitted curve by direction and shape.

These molecules were tested against Alanine aminotransferase 2 (Homo sapiens) (UniProt Q8TD30) (assay: Primary qHTS assay for inhibitors of Glutamate pyruvate transaminase 2 (GPT2)). Conditions: Recombinant GPT2, coupled pyruvate oxidase/HRP Amplex Red fluorescence; activity change, negative = inhibition: at 57.7 µM (top of the series) unless noted; series mostly up to 57.7 µM.
Sequence of UniProt Q8TD30 (Q8TD30 whole entry, looked up): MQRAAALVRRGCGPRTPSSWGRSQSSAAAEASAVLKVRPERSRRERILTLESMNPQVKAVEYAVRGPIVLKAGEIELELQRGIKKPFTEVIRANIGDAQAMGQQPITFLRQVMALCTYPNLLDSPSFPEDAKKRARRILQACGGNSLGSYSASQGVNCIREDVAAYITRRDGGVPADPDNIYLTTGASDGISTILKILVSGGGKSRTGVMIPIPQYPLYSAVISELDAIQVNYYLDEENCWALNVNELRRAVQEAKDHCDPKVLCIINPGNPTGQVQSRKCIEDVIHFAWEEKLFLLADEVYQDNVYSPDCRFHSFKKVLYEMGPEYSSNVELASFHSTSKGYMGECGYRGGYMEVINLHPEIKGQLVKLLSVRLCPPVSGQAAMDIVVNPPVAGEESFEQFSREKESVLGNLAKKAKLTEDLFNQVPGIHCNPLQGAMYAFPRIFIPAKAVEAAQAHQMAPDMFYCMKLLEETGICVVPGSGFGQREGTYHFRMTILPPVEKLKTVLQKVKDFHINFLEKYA
Summary of the method: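 Fluorescence read-out: pyruvate from GPT2 turnover coupled to pyruvate oxidase, HRP and Amplex Red (0.2mM ThPP, 0.2U/mL PO and HRP, 50uM Amplex final). Substrates 250uM a-KG, 2mM L-alanine; enzyme 10ng/uL; 30 min RT.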
`COc1nc(C)nc(Cl)c1NC1=NCCN1` was tested, and the Potency was inconclusive [inhibitor, partial curve, poor fit]. In the case of `NC(=O)C1(C(=O)N2CCc3cc(S(=O)(=O)Nc4cccnc4)ccc3C2)CC1`, the Potency was inconclusive [inhibitor, single point]. For `O=c1c2nc(Nc3cccc(F)c3)ccc2ncn1Cc1ccccc1`, the “activity change, negative = inhibition” value was inactive: -1.62% [at 88.5 µM]. `NC(=O)C(c1ccccc1)(c1ccccc1)[C@@H]1CCN(CCc2ccc3c(c2)CCO3)C1` was tested, and the Potency was inconclusive [inhibitor, single point]. For `CCCCn1c(=O)c(C(=O)NC)nc2cccnc21`, the “outcome” value was “inactive [at 88.5 µM]”. For `C=C[C@H]1[C@H](O[C@@H]2O[C@H](CO)[C@@H](O)[C@H](O)[C@H]2O)OC=C(C(=O)OC)[C@H]1CC(=O)O`, the Potency was inconclusive [inhibitor, partial curve, poor fit]. `CS(=O)(=O)NCCc1ccc(CC2CCN(C(=O)CCC3CCCC3)CC2)cc1` was tested, and the “activity change, negative = inhibition” value was inactive: 3.39%. `COc1ccc(-c2cc(N3CCCC(NC(=O)c4ccc5c(c4)OCO5)C3)n[nH]2)cc1` (centres undefined) was tested, and the Potency was inconclusive [inhibitor, single point]. `Cc1noc(C2CC3(CCN(C(=O)CC4CCCC4)CC3)CN2C)n1` (centres undefined) was tested, and the “outcome” value was “inactive”. With `COCCCn1c(=O)c(C(=O)NCCCc2ccccc2)nc2cccnc21` the “outcome” value was “inactive”. In the case of `COc1ccc(NC(=O)C[C@@H]2C[C@@H](C(C)C)[C@H](CC#N)C=C2C)cn1`, the “activity change, negative = inhibition” value was inactive: -1.7% [at 88.5 µM]. `Cc1ccc(C(=O)N2CCCC(c3nn(-c4ccccn4)c(=O)[nH]3)C2)cc1` (centres undefined) was tested, and the “outcome” value was “inactive”. In the case of `CCCc1nn(-c2cccc(C)c2)c(=O)n1CC(=O)NCC1(O)CCCCC1`, the “outcome” value was “inactive”. In the case of `COc1ccc2[nH]cc(CCNC(=O)C3Cn4cccc4C(=O)N3Cc3ccccc3)c2c1` (centres undefined), the “outcome” value was “inactive”. In the case of `O=C(Nc1ccc([C@H]2OCC(=O)N(C3CCOCC3)[C@@H]2CO)cc1)C1CCC1`, the Potency was inconclusive [inhibitor, full curve, poor fit]. In the case of `c1ccc(CN2CCNc3cc(Nc4ccc(N5CCOCC5)cc4)ncc3C2)cc1`, the Potency was inconclusive [inhibitor, partial curve, poor fit]. `Cc1cccc(OCC2(CNC(=O)C3CCOCC3)C[C@@H](O)[C@@H](O)C2)n1` (some centres undefined) was tested, and the “activity change, negative = inhibition” value was inactive: 2.04% [at 88.5 µM]. In the case of `CN(C)CCCC(=O)NC[C@@H]1CC[C@H]2C[C@@H]1C2(C)C`, the Potency was inconclusive [inhibitor, partial curve, poor fit]. `Cn1nc(C(=O)NCc2cccnc2)c2c1CN(C(=O)COc1ccccc1)C2` was tested, and the “outcome” value was “inactive”. `COc1cc(/C=C(\C#N)C(=O)Nc2nnc(C(F)(F)F)s2)ccc1OCc1ccc(C(F)(F)F)cc1C(F)(F)F` was tested, and the “activity change, negative = inhibition” value was inactive: 1.4%. In the case of `C[S+](=O)([O-])N1CCC(Cn2ccc3c(N4CCOCC4)nc(-c4cncnc4)cc32)CC1`, the Potency was inconclusive [inhibitor, single point]. In the case of `COC(=O)CCNC(=O)C1c2ccccc2C(=O)N(Cc2ccccc2)C12CCCC2` (centres undefined), the “outcome” value was “inactive”. In the case of `FC(F)(F)c1cccc(C2=NOC3(CCN(Cc4ccsc4)C3)C2)c1` (centres undefined), the Potency was inconclusive [inhibitor, single point]. For `CC(C)CN1CCN(C(=O)c2ccc3c(c2)CC(=O)N3Cc2ccc(F)cc2)CC1`, the Potency was inconclusive [inhibitor, single point]. `CCc1nncn1C1CCN(S(=O)(=O)c2cccc(OC)c2)CC1` was tested, and the “outcome” value was “inactive”. With `COc1cc(OC)cc(-c2onc(C)c2C(=O)NC(C)CCc2ccccc2)c1` (centres undefined) the Potency was inconclusive [inhibitor, single point]. In the case of `COc1cccc(-c2cc(-c3ccc(=O)[nH]c3)c3cncn3c2)c1`, the Potency was inconclusive [inhibitor, partial curve, poor fit]. For `CC[C@@H](C)Nc1cc(C(=O)NC2CC3CCC(C2)N3c2ccc(C(=O)C3CC3)cn2)c(C)cc1C(N)=O` (some centres undefined), the Potency was inconclusive [inhibitor, single point]. For `CCOc1ccc(CC(=O)N2CCC(Cc3nc(-c4ccc(OC)cc4)no3)CC2)cc1`, the Potency was inconclusive [inhibitor, single point]. For `Cc1ccc(-c2cc(N3CCCN(C(=O)CCc4ccccc4)CC3)n[nH]2)cc1C`, the Potency was inconclusive [inhibitor, single point]. For `COC(=O)CNC(=O)N1CCCCC1c1nc(CCOc2ccc(F)cc2)no1` (centres undefined), the Potency was inconclusive [inhibitor, single point]. In the case of `Cc1c(C(=O)N[C@@H]2COCC[C@H]2Oc2ccc(C(N)=O)cc2)cnn1C`, the Potency was inconclusive [inhibitor, single point]. With `CC(C)N[C@H]1C[C@@H](Cc2cc(-c3ccccc3)on2)C1(C)C` the “activity change, negative = inhibition” value was inactive: -2.59% [at 88.5 µM]. `COc1ccc(-c2nnc(C[C@@H]3C[C@@H](C(C)C)[C@H](CN(C)CCC#N)C=C3C)o2)cc1` was tested, and the Potency was inconclusive [inhibitor, single point]. `NC(=O)C1(N2CCCCC2)CCN(CCCN2c3ccccc3CCc3ccc(Cl)cc32)CC1` was tested, and the Potency was inconclusive [inhibitor, single point]. In the case of `CCCn1ncc(N2CCC(C(=O)N(CCc3ccncc3)CC3CCCO3)CC2)cc1=O` (centres undefined), the “activity change, negative = inhibition” value was inactive: 4.08%. For `COc1ccc(CCN2Cc3cc(NC(=O)Cc4ccc(F)cc4)ccc3OC(C)C2=O)cc1` (centres undefined), the Potency was inconclusive [inhibitor, partial curve, poor fit]. `c1cn(C2CCSC2)c(-c2cc3n(n2)CCNC3)n1` (centres undefined) was tested, and the Potency was inconclusive [inhibitor, single point]. For `CC(C)(C)CNC1(Cc2cc(COc3ccccc3)on2)COC1`, the Potency was inconclusive [inhibitor, single point]. `COCCNC(=O)c1ccc2nnc(-c3ccc(Cl)cc3)n2c1` was tested, and the Potency was inconclusive [inhibitor, single point]. With `CC1(C)CC[C@]23CO[C@@]4(CCC5[C@@]6(C)CC[C@H](O[C@@H]7OC[C@H](O[C@@H]8O[C@H](CO)[C@@H](O)[C@H](O)[C@H]8O[C@@H]8OC[C@@H](O)[C@H](O)[C@H]8O)[C@H](O)[C@H]7O)[C@@](C)(CO)C6CC[C@@]5(C)[C@]4(C)CC2=O)[C@@H]3C1` (some centres undefined) the Potency was inconclusive [inhibitor, partial curve, poor fit]. `CC(=O)N1CCN(C(=O)c2ccc3oc(-c4cccnc4)nc3c2)CC1` was tested, and the “outcome” value was “inactive”. `N#Cc1ccccc1N1CCN(C(=O)CCc2nc3ccccc3[nH]2)CC1=O` was tested, and the Potency was inconclusive [inhibitor, partial curve, poor fit]. For `CN(c1cc(=O)c2ccnc(-c3cccc(C(F)(F)F)c3)c2o1)C1CCOCC1`, the “outcome” value was “inactive [at 88.5 µM]”. In the case of `COc1ccccc1OCCNC(=O)[C@@H]1COCC(=O)N1Cc1ccc(F)cc1`, the “activity change, negative = inhibition” value was inactive: -14.9%. With `CCOc1ccccc1C(=O)NC1CCN(c2cc(-c3ccc(F)cc3)[nH]n2)C1` (centres undefined) the Potency was inconclusive [inhibitor, partial curve, poor fit]. With `Cc1cc(C)n(CCC(=O)N2CC(c3noc(COc4ccccc4)n3)C2)n1` the Potency was inconclusive [inhibitor, single point]. With `COc1ccc(C(=O)NCC2c3cc(OC)c(OC)cc3CCN2C(=O)NC(C)C)cc1` (centres undefined) the Potency was inconclusive [inhibitor, single point]. For `COc1cc2c(Oc3ccc4[nH]c(C)cc4c3F)ncnc2cc1OCCCN1CCCC1`, the Potency was inconclusive [inhibitor, partial curve]. In the case of `O=C(OCc1ccccc1)N1CCC2(CC1)C(=O)NN=C2C1CC1`, the “activity change, negative = inhibition” value was inactive: 0.844% [at 88.5 µM]. With `COCCNC(=O)c1cc(-c2cccc(C(F)(F)F)c2)c2nncn2n1` the “activity change, negative = inhibition” value was inactive: 3.93%. `COc1cccc(N2CC(C(=O)N3CCC(C(=O)NCC4CC4)C3)NC2=O)c1` (centres undefined) was tested, and the Potency was inconclusive [inhibitor, partial curve, poor fit]. In the case of `COc1cccc2c1C(=O)c1c(O)c3c(c(O)c1C2=O)C[C@@](O)(C(=O)CO)C[C@@H]3O[C@H]1C[C@H](N)[C@H](OC2CCCCO2)[C@H](C)O1` (some centres undefined), the Potency was active: 3.06 µM. `CCCC1CCN(C(=O)c2coc(COc3ccc4ccc(OC)cc4c3)n2)C1` (centres undefined) was tested, and the Potency was inconclusive [inhibitor, partial curve]. In the case of `COc1ccc2c(C)c(C(=O)N3CCOC(c4ccc(F)cc4)C3)oc2c1` (centres undefined), the “activity change, negative = inhibition” value was inactive: -32.7%. For `Cc1ccccc1NC(=O)c1cc2n(n1)CC(c1ccc(Cl)cc1)OC2` (centres undefined), the “outcome” value was “inactive”. For `Cc1ccc(CNC(=O)CCc2conc2-c2ccc(F)cc2)o1`, the Potency was inconclusive [inhibitor, single point]. In the case of `O=C(CC(c1ccccc1)c1ccccc1F)N1CCSCC1` (centres undefined), the Potency was inconclusive [inhibitor, single point]. For `CNC(=O)c1cnn2c1CN([S+](=O)([O-])c1cccc(OC)c1)CC2`, the Potency was inconclusive [inhibitor, single point]. For `COCCn1ncc(N2CCCC(CC(=O)NCCc3ccccc3)C2)cc1=O` (centres undefined), the Potency was inconclusive [inhibitor, single point]. `O=C(NCc1cccnc1)c1nc(-c2ccc(F)cc2)c2ccccn12` was tested, and the “outcome” value was “inactive”. `CNC(=O)[C@@H]1C[C@H](Oc2ccccc2)CN1C(=O)c1cccnc1` was tested, and the Potency was inconclusive [inhibitor, single point]. In the case of `CC1C2=CC(=O)OC2(O)CC2C1C(OC(=O)c1ccccc1)C(OC(=O)c1ccccc1)C1(O)C2(C)CCC(O)C1(C)C(=O)O` (centres undefined), the Potency was inconclusive [inhibitor, partial curve, poor fit]. With `COc1cccc(C(=O)N2CCCN(c3cc(-c4ccc(Cl)cc4)[nH]n3)CC2)c1OC` the Potency was inconclusive [inhibitor, partial curve, poor fit].
